The test system of this data set is ATP. The data set can be described thus: switch fluorescence ratio, 500 uM ATP over buffer (Cy3 cluster intensity, sum of 5 cycles each) (fold (ratio)); higher = stronger signal-on switching upon ATP binding; sequences stand for … in TCGTCGGCAGCGTCAGATGTGTATAAGAGACAGTTTTTTTTTTTTTTTTTTTTTTTTT…TC. The conditions noted are these: aptamer strand: ATP DNA aptamer (quencher-CACCTGGGGGAGTATTGCGGAGGAAGG + anchor), 100 nM annealed; ATP concentration: 500 uM; one replicate. An outline of the steps:
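Per cluster, summed Cy3 intensity from the target cycles was divided by that from the buffer cycles to give the fluorescence ratio, then averaged per switch-domain sequence. Clusters outside 100-1000 RFU were excluded. The Cy3-labelled switching-strand clusters, on a modified Illumina MiSeq flow-cell, were annealed to 100 nM quencher-labelled ATP aptamer and imaged in selection buffer, then after 15 min with 500 uM ATP at 22 °C, for five cycles with NaOH stripping and re-annealing between them.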

Values marked as one replicate rest on one cluster of the flow cell; about a third of the high ones do not repeat.

The text below walks through data of the supplement of paper PMC10126150.
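Note: ATP exposure 15 min at 22 °C before imaging.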

In the case of AGGACTATTA, the switch fluorescence ratio was 1.05.

For the sequence GGGACAGCTT, the switch fluorescence ratio was 1.05.

TGGTCTATAT: the switch fluorescence ratio was 1.04.

As to AGCTTTGGAT, the switch fluorescence ratio was found to be 1.02.

As for CATATATTAC, the switch fluorescence ratio was determined as 1.01.

For the sequence CCAAGTCGTG, the switch fluorescence ratio worked out at 0.953.

Take CGCGATTCCA: the switch fluorescence ratio is 1.12.

As to TCGCCAACCT, the switch fluorescence ratio was 1.86.

With GGAAATTTCC, the switch fluorescence ratio came to 0.983.

For the sequence CAGGCGGACT, the switch fluorescence ratio was 0.994.

Consider CTACAAACAC, for which the switch fluorescence ratio was found to be 1.19.

GCCTGTGATG: the switch fluorescence ratio turned out to be 0.997.

For the sequence TTTTACTAGG, the switch fluorescence ratio came out at 1.07.

CACAACGCTG: the switch fluorescence ratio worked out at 1.01.

As for CACGTGCCTC, the switch fluorescence ratio was determined as 1.01.

ATTATGTGC: the switch fluorescence ratio was determined as 1.

In the case of TTCATAATG, the switch fluorescence ratio was 1.01.

As to AAGGATTTCA, the switch fluorescence ratio came out at 0.993.

Turning to CAGGGTCCTT, the switch fluorescence ratio amounted to 0.981.

As for AGGTCCTGA, the switch fluorescence ratio was determined as 1.04.

On to ACCTAATCGG, for which the switch fluorescence ratio stood at 1.02.

Regarding TCATCAGAGG, the switch fluorescence ratio was determined as 0.987.

Turning to ATAGACCTAC, the switch fluorescence ratio amounted to 1.26.

On to GAGGCCCTC, for which the switch fluorescence ratio turned out to be 0.993.

TAGACTCGCC: the switch fluorescence ratio worked out at 1.03.

Turning to CGAAACCGGG, the switch fluorescence ratio is 1.14.

With AGTTTAACGT, the switch fluorescence ratio was found to be 1.01.

For AGGGATTGCA, the switch fluorescence ratio was found to be 0.969.

Take GCCGCAGACT: the switch fluorescence ratio came to 2.63.

As for TAGTTTACT, the switch fluorescence ratio was 0.985.

With ATTTCGCGG, the switch fluorescence ratio came to 1.06.

In the case of GTTCAACCGT, the switch fluorescence ratio turned out to be 1.03.

Consider CAGAGGAGGA, for which the switch fluorescence ratio was determined as 1.03.

Turning to CTTGAATCGG, the switch fluorescence ratio came out at 0.98.

Consider CACGTGGCTG, for which the switch fluorescence ratio was found to be 0.956.

Turning to GAGTAAATG, the switch fluorescence ratio is 1.

As for GATGGATCTC, the switch fluorescence ratio is 1.03.

GGTAGAGGCA: the switch fluorescence ratio was 0.993.

For the sequence TTACGAGGTA, the switch fluorescence ratio was found to be 1.04.

Regarding TAGGATCGGG, the switch fluorescence ratio amounted to 0.994.

For TCCACGTAGG, the switch fluorescence ratio amounted to 1.09.

Turning to TAAGTGGGAT, the switch fluorescence ratio turned out to be 1.03.

ACCGCTTGAA: the switch fluorescence ratio worked out at 1.04.

For GGTGCAAGT, the switch fluorescence ratio is 0.995.

On to CAGGGTATTA, for which the switch fluorescence ratio turned out to be 0.994.

In the case of CACTTACTAT, the switch fluorescence ratio is 1.11.

In the case of TACCCTTTTG, the switch fluorescence ratio turned out to be 1.03.

As for CACACATTCC, the switch fluorescence ratio turned out to be 1.99.

CAACGTGTAT: the switch fluorescence ratio was found to be 0.999.

Turning to GGCACGTGGA, the switch fluorescence ratio came to 1.02.

As for ACTAAGCGGC, the switch fluorescence ratio was 1.08.

For the sequence AAGTGTATG, the switch fluorescence ratio amounted to 0.964.

On to ATCGATTCGA, for which the switch fluorescence ratio worked out at 0.996.

TGGATTTAAG: the switch fluorescence ratio was found to be 0.993.

Consider CGTAGTGGTA, for which the switch fluorescence ratio amounted to 1.06.

Consider CCGCTCTCGC, for which the switch fluorescence ratio is 2.66.

Take TGAGAAGATT: the switch fluorescence ratio was found to be 0.993.

On to AGCAGGTGAG, for which the switch fluorescence ratio came to 1.29.

Consider ATCCAGGAAC, for which the switch fluorescence ratio is 1.02.

For the sequence AAAATGAGA, the switch fluorescence ratio came out at 1.04.

Consider AAGTTACTG, for which the switch fluorescence ratio is 1.06.

For the sequence AACTTTCACG, the switch fluorescence ratio was 1.2.

Consider CACACCGCAA, for which the switch fluorescence ratio is 2.05.

With AATTGGTAGT, the switch fluorescence ratio came to 0.971.

Turning to GCATTCAAAT, the switch fluorescence ratio is 1.

As for TCATGCGAGG, the switch fluorescence ratio was found to be 0.995.

Regarding TGGCCCGGTT, the switch fluorescence ratio worked out at 0.966.

Take CTGTACTGTA: the switch fluorescence ratio was 1.21.

As to CGTAGCCGAA, the switch fluorescence ratio worked out at 1.02.

As for GCTAAAGGT, the switch fluorescence ratio came to 0.984.

Consider CAATGGCGAT, for which the switch fluorescence ratio was found to be 0.941.

As for AGCCCCGACA, the switch fluorescence ratio was 1.02.

On to CTCGGGCGTA, for which the switch fluorescence ratio was determined as 0.995.

In the case of GGTGTAGAAT, the switch fluorescence ratio was 1.02.

As to TGACCTACCG, the switch fluorescence ratio is 1.06.

Take ACCAGTGGCG: the switch fluorescence ratio was determined as 1.08.

For TTGGTCCCGG, the switch fluorescence ratio was 0.975.

For AGGGGTATCA, the switch fluorescence ratio was 1.01.

Turning to AGTAAGAAGG, the switch fluorescence ratio was 0.986.

In the case of ATATAAATAG, the switch fluorescence ratio stood at 1.01.

On to TTCTCGAGCC, for which the switch fluorescence ratio was 1.

For the sequence GGGGTGTCG, the switch fluorescence ratio is 1.13.

Take GTTCAGGCGC: the switch fluorescence ratio worked out at 1.03.

In the case of ATTCAATAAT, the switch fluorescence ratio was found to be 1.02.

Take GCCGTCCTGC: the switch fluorescence ratio was 1.01.

Take CCGACGATGG: the switch fluorescence ratio came out at 2.92.

Consider CTCACGAGAA, for which the switch fluorescence ratio stood at 1.02.

In the case of ATCATGGTAC, the switch fluorescence ratio came out at 1.06.

For GACCTGCCAT, the switch fluorescence ratio came to 1.12.

As to GTAGTGTCTG, the switch fluorescence ratio was determined as 0.98.

For TTGGGTTTT, the switch fluorescence ratio stood at 1.01.

On to TTTCCCCAGA, for which the switch fluorescence ratio worked out at 1.14.

For AGTATTGGGA, the switch fluorescence ratio worked out at 0.997.

As to ATCTACTCAA, the switch fluorescence ratio came to 1.14.

For CGGCCAGATT, the switch fluorescence ratio was found to be 0.997.

TCAACGGATA: the switch fluorescence ratio is 1.07.

Turning to GATTGTGGGA, the switch fluorescence ratio is 1.04.

Turning to GCAAGGTAGT, the switch fluorescence ratio was 1.02.

ATCAGAGCGA: the switch fluorescence ratio is 1.06.

For TAAGGGATC, the switch fluorescence ratio is 0.956.

As for CCGGTTGGTA, the switch fluorescence ratio was determined as 0.989.

On to GCAAGTTATA, for which the switch fluorescence ratio came out at 1.03.

Turning to GGGGTCTTT, the switch fluorescence ratio was found to be 0.986.

As to AAGGACCCCA, the switch fluorescence ratio was 1.07.

Take CCACCAGCCG: the switch fluorescence ratio is 1.33.

Take GTGTTGATTC: the switch fluorescence ratio stood at 1.02.

Regarding ATGGGAGCTC, the switch fluorescence ratio was found to be 1.02.

As to TCGGTCTTAT, the switch fluorescence ratio worked out at 1.01.

As to TTAGAGTGAC, the switch fluorescence ratio stood at 1.01.

For the sequence AATGTATTAA, the switch fluorescence ratio is 1.02.

For the sequence GTCGGAAAGG, the switch fluorescence ratio amounted to 0.988.

Consider TCCCAGGAAT, for which the switch fluorescence ratio is 1.13.

GAATTTCCTT: the switch fluorescence ratio is 1.01.

For the sequence AGGTGCCCC, the switch fluorescence ratio came out at 1.09.

For the sequence CGTTACAAAG, the switch fluorescence ratio worked out at 1.03.

As for AGGCCCAATG, the switch fluorescence ratio worked out at 0.974.

As to TAGAGTCAGG, the switch fluorescence ratio came out at 0.984.

With AGGGAAACCT, the switch fluorescence ratio is 2.76.

As to ACGGCTATGG, the switch fluorescence ratio came to 1.1.

Take CGCAACCCTA: the switch fluorescence ratio was determined as 1.75.
